Assay results: the supplement of paper PMC12217912
The list shows a part of the results. Sequences were assembled here from the parent chain. Inactive controls read about 0.05.

B1: TEV protease; numbered along this chain (parent)
chain: MGESLFKGPRDYNPISSSICHLTNESDGHTTSLYGIGFGPFIITNKHLFRRNNGTLVVQSLHGVFKVKDTTTLQQHLVDGRDMIIIRMPKDFPPFPQKLKFREPQREERICLVTTNFQTKSMSSMVSDTSCTFPSGDGIFWKHWIQTKDGQCGSPLVSTRDGFIVGIHSASNFTNTNNYFTSVPKNFMELLTNQEAQQWVSGWRLNADSVLWGGHKVFMVKPEEPFQPVKEATQL

Variants of: B1
Experiment: raw area under fraction-flipped curve 0-4 h after induction (AUC4h, not background-subtracted), DNA-recorder readout of cleavage of the substrate (dimensionless); higher = more cleavage of the substrate by the protease variant
Conditions: temperature: 34 °C; time window: 0-4 h after rhamnose induction
Protocol: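 In vivo DNA recorder in E. coli TOP10(DE3) ΔrhaA at 34 °C. Each TEVp single-site mutant (parent TEVp 0) is paired with a single-site variant of the 7-mer TEVs (canonical ENLYFQ|S). The substrate sits between flexible linkers in a Bxb1-sfGFP-TEVs-SsrA fusion, so cleavage stabilises Bxb1 and speeds flipping of a recombination array, read by NGS. The value is the raw area under the fraction-flipped curve over 0-4 h after rhamnose induction (AUC4h), with ≥20 reads per time point. It is not background-subtracted; inactive controls average about 0.047.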
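Also: Bxb1 expression induced with 0.2% (w/v) L-rhamnose at OD600 near 0.5, cultures sampled hourly, flipped fraction per protease–substrate barcode pair counted by paired-end Illumina sequencing.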

| Variant | area with substrate ECLYFQS | area with substrate ESLYFQS | area with substrate EVLYFQS | area with substrate EGLYFQS | area with substrate EKLYFQS | area with substrate ELLYFQS | area with substrate EMLYFQS | area with substrate EPLYFQS | area with substrate EQLYFQS | area with substrate ERLYFQS |
| --- | --- | --- | --- | --- | --- | --- | --- | --- | --- | --- |
| K66A | 0.0912 | 0.0964 | 0.107 | – | – | – | – | – | – | – |
| K66Y | 0.115 | – | – | 0.0983 | 0.123 | 0.098 | 0.101 | 0.151 | 0.115 | 0.109 |
| H29G | 0.0917 | – | 0.0726 | – | – | – | – | – | – | 0.159 |
| Q198S | – | 0.112 | 0.0951 | – | 0.107 | 0.0675 | 0.121 | – | 0.11 | 0.0893 |
| V200D | – | 0.0751 | – | 0.0878 | 0.0821 | 0.0525 | – | 0.0604 | – | – |
| N193Y | – | 0.0781 | – | 0.0681 | 0.083 | – | – | – | – | 0.0793 |
| N193Q | – | 0.0841 | 0.0837 | – | 0.0794 | – | – | – | 0.0996 | 0.081 |
| N193C | – | – | – | 0.104 | 0.108 | – | – | – | – | – |
| F6N | 0.114 | 0.0738 | 0.0967 | 0.0941 | 0.0904 | – | – | 0.128 | 0.109 | 0.109 |
| F6A | 0.0656 | 0.0918 | – | – | – | – | – | – | 0.0771 | – |
| Q194A | – | 0.104 | 0.101 | – | – | – | – | – | – | 0.117 |
| I84V | 0.121 | 0.149 | 0.103 | 0.104 | 0.116 | 0.0827 | 0.102 | 0.133 | – | 0.107 |
| I86C | 0.0985 | 0.0812 | 0.0837 | – | 0.0473 | 0.0855 | – | 0.108 | 0.103 | 0.0852 |
| R204D | – | 0.103 | 0.0885 | – | 0.103 | – | – | 0.0909 | 0.0929 | 0.099 |
| P89A | 0.0825 | 0.0861 | – | 0.075 | – | – | – | – | 0.103 | 0.0875 |
| G214E | – | 0.0815 | 0.0553 | – | 0.0831 | – | – | – | – | 0.0613 |
| S201N | – | 0.0984 | 0.0806 | 0.0783 | 0.0708 | 0.0861 | 0.121 | – | – | 0.103 |
| M88L | 0.115 | 0.101 | – | 0.0746 | 0.073 | 0.122 | 0.111 | 0.118 | 0.139 | 0.0904 |
| V78N | 0.0755 | 0.0733 | – | 0.0684 | 0.0603 | 0.0547 | 0.0631 | – | 0.0617 | – |

Same assay, conditions: temperature: 34 °C; time window: 0-4 h after rhamnose induction

| Variant | area with substrate EALYFQS | area with substrate EHLYFQS | area with substrate EILYFQS | area with substrate ETLYFQS | area with substrate EYLYFQS | area with substrate EELYFQS | area with substrate EDLYFQS | area with substrate EFLYFQS | area with substrate EWLYFQS |
| --- | --- | --- | --- | --- | --- | --- | --- | --- | --- |
| Q198S | 0.134 | 0.107 | 0.0783 | 0.131 | 0 | – | – | – | – |
| V200D | 0.102 | – | – | – | – | 0.0626 | – | – | – |
| N193Y | 0.0825 | – | 0.0841 | 0.0879 | – | – | – | – | – |
| N193Q | 0.0705 | – | 0.0509 | 0.0999 | – | – | 0.136 | 0.078 | – |
| N193C | 0.131 | – | – | – | – | – | – | – | – |
| F6N | – | 0.0976 | 0.0988 | – | – | – | 0.163 | – | – |
| F6A | – | – | – | – | 0.0703 | – | 0.0757 | 0.0795 | – |
| Q194A | 0.178 | 0.176 | 0.0943 | – | – | 0.121 | 0.139 | – | – |
| I84V | – | – | – | – | 0.0855 | – | 0.136 | – | – |
| I86C | – | – | 0.0679 | – | – | 0.0597 | – | – | – |
| R204D | 0.123 | – | 0.0857 | – | 0.0722 | 0.118 | – | – | 0.102 |
| P89A | – | – | 0.0723 | – | – | 0.096 | – | – | – |
| G214E | 0.117 | 0.086 | 0.0738 | 0.116 | – | – | – | – | – |
| S201N | 0.111 | 0.0797 | 0.0928 | 0.0467 | 0.106 | – | – | – | 0.0863 |
| M88L | – | – | 0.107 | – | – | – | – | 0.154 | 0.109 |
| V78N | – | 0.0701 | 0.072 | 0.0628 | 0.0784 | 0.0809 | – | – | 0.0655 |
